# Hit rate of the full screen: of about 420,000 compounds, about 64,000 (15%) were called active. This list was built around the results that the source calls inconclusive (neither active nor inactive); the mix of calls is not that of the screen. Calls follow the shape of the dose curve; as a rule, active = well fitted inhibition curve with a large enough effect; inconclusive = small, poorly fitted or top-dose-only effect; inactive = flat fitted curve, though single readings scatter. Potencies of inconclusive entries are left out as doubtful fits.
# Test: qHTS for Inhibitors of human tyrosyl-DNA phosphodiesterase 1 (TDP1): qHTS in cells in absence of CPT; also: nearly all actives have a fitted effect of over 55% in size
# Details: DT40 Tdp1-/- hTDP1 cells, no CPT, ATP luminescence, 48 h; activity change, negative = growth inhibition: at 46.2 µM (top of the series)
# Method in brief: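 Compound effects on proliferation are scored in DT40 Tdp1-/-;hTDP1 cells in the absence of CPT. ATP levels (CellTiter-Glo luminescence) are recorded after a ≥48 hr, 37 °C incubation.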
# % is scaled to controls: 0 for no effect and ±100 for the full control effect; potency is read from the fitted curve at half-maximal effect; tags tell the direction and shape of the fitted curve.
SMILES,Potency,"activity change, negative = growth inhibition"
CC(=O)Nc1ccc(NC(=O)COc2ccc([N+](=O)[O-])cc2)cc1,inactive,
Cc1cccnc1NC(=S)Nc1ccc(Cl)c(Cl)c1,"inconclusive [inhibitor, single point]",
COc1ccc2cc(S(=O)(=O)N3CCCCC3)ccc2c1S(=O)(=O)N1CCCCC1,"inconclusive [inhibitor, partial curve]",
CN(C(=O)c1ccc(NC(=O)Cc2ccc(NC(=O)C3CCCN(C(=O)C4CC4)C3)cc2)cc1)C1CCCC1 (centres undefined),"inconclusive [inhibitor, single point]",
COC(=O)[C@]12CCCCC=C1N(Cc1cccc3ccccc13)C(=O)[C@H](CC(=O)N1CCN(C(=O)C3CC3)CC1)C2,active: 20.6 µM,
CCCCCCCCCCOC(=O)Cn1c(COc2ccc(Cl)cc2)[n+](C)c2ccccc21,active: 4.61 µM,
CC(NC(=O)CCCCCNC(=O)N1CCn2c1nc1ccccc12)c1ccccc1 (centres undefined),inactive,
Cc1ccc(C)c(NC(=O)c2cc(S(=O)(=O)N3CCCCCC3)ccc2F)c1,"inconclusive [inhibitor, single point]",
Cc1ccc(C(=O)NCC(=O)NCC(=O)OCC(=O)c2ccc(F)cc2)cc1,inactive,
CCOC(=O)C1(C)CCCCN1C(=O)c1ccc(F)c(C)c1 (centres undefined),"inconclusive [inhibitor, partial curve, poor fit]",
CC(=O)N1CCCc2cc(S(=O)(=O)CCC(=O)N3CCN(c4ccccc4)CC3)ccc21,"inconclusive [inhibitor, single point]",
CCN1CCC(N[C@H]2C[C@@H](C(=O)NC)N(Cc3cccc4ccccc34)C2)CC1,"inconclusive [inhibitor, single point]",
O=C(NC(C(=O)N/N=C/c1cc([N+](=O)[O-])ccc1O)c1n[nH]c(=O)c2ccccc12)c1ccccc1 (centres undefined),"inconclusive [inhibitor, single point]",
COc1ccc(CCCc2nnc(SCC(=O)Nc3ccc(OC)cc3)o2)cc1,inactive,
Cc1oc(-c2ccccc2F)nc1CS(=O)CC(=O)NCCN1CCCCC1C (centres undefined),inactive,
Cc1nn(-c2ccccc2)c(C)c1/C=N/n1c(-c2ccccc2Br)n[nH]c1=S,inactive,
Cc1ccc(C(=O)NCC(=O)OCc2cccc(Br)c2)cc1,inactive,

SMILES,Potency,"activity change, negative = growth inhibition"
Cc1ccc2cc3cc(C(=O)NCCCN4CCCC4=O)oc3nc2c1,inactive,
S=C(c1ccc(-c2ccc(Cl)cc2)o1)N1CCCCC1,"inconclusive [inhibitor, single point]",
COC(=O)[C@@H](NC(=O)C1CCCN(c2nc(C)c3ccc(C)cc3n2)C1)C(C)C (some centres undefined),"inconclusive [inhibitor, partial curve, poor fit]",
Cc1ccc2c(=O)c(C(=O)c3cccc(Cl)c3)cn(CC(=O)Nc3ccc4c(c3)OCCO4)c2n1,"inconclusive [inhibitor, single point]",
COc1ccc(CCNC(=O)c2cccc(S(=O)(=O)N3CCCCCC3)c2)cc1,"inconclusive [inhibitor, partial curve, poor fit]",
O=C(CSc1nnc(NC(=O)Nc2ccccc2)s1)Nc1cccc(F)c1,"inconclusive [inhibitor, single point]",
COc1ccc(-n2nnnc2S(=O)(=O)CC(=O)N2CCCCC2)cc1,active: 1.46 µM,
COC(=O)c1cccc2c(C(=O)O)cc(-c3ccccc3)nc12,inactive,
Cn1c(=O)cc(OCC(=O)N2CCN(c3cccc(C(F)(F)F)c3)CC2)c2ccccc21,active: 14.6 µM,
Nc1nc(NCc2ccccc2)nc(NCCO)c1[N+](=O)[O-],"inconclusive [inhibitor, single point]",
COc1ccccc1N1C(=O)S/C(=C\c2cc(C)n(C)c2C)C1=O,"inconclusive [inhibitor, single point]",
CCOC(=O)c1ccccc1NC(=O)CSc1nccn1C,,inconclusive: -34.6% [inhibitor]
Cc1ccc(S(=O)(=O)C(C)C(=O)c2ccc3c(c2)OCCO3)cc1 (centres undefined),inactive,
O=C(Nc1cc(F)ccc1F)N1CCC(CN2CCCC2)CC1,inactive,
CC(=O)c1c(C)[nH]c(C(=O)Nc2cccc(S(=O)(=O)N3CCOCC3)c2)c1C,"inconclusive [inhibitor, single point]",
CCN(CC)c1ccc(C=Nc2ccccc2)c(O)c1,"inconclusive [inhibitor, partial curve, poor fit]",
NC(=O)c1ccsc1NC(=O)c1ccc2c(c1)CCCC2,"inconclusive [inhibitor, partial curve]",

# Source: PubChem BioAssay AID686978 (National Center for Advancing Translational Sciences (NCATS), 2013)
